Assay results from PubChem BioAssay AID651820 (National Center for Advancing Translational Sciences (NCATS), 2012).
“And” between values parts separate entries of the source, which are not always exact repeats. Equal entries are not always repeated. About 12,000 (3.5%) of roughly 340,000 compounds were called active. This list was built around the results that the source calls inconclusive (neither active nor inactive); the mix of calls is not that of the screen. Calls follow the shape of the dose curve; as a rule, active = well fitted inhibition curve with a large enough effect; inconclusive = small, poorly fitted or top-dose-only effect, or another doubt; inactive = no such curve, though single readings can be large or run the other way. No potency is given beside an inconclusive call; the fits are too rough. Some structures have more than one record in an assay (separate samples or runs), and their calls can disagree.

assay: qHTS Assay for Inhibitors of Hepatitis C Virus (HCV); details: Huh7.5.1 HCVcc-Cre (HCVcc is cell-culture hepatitis C virus) infection, luciferase reporter, 44 h; activity change, negative = inhibition: at 41.8 µM (top of the series) unless noted
Summary of the method: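 Luciferase read-out (15 sec integration) after a 15 min room-temperature substrate step quantifies HCVcc-Cre infection. Cells, 1,000 per well, had compound added 4 h post-plating, then virus at ~0.5 moi, and were cultured 44 h.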
% is scaled to controls: 0 for no effect and ±100 for the full control effect; potency is read from the fitted curve at half-maximal effect; tags tell the direction and shape of the fitted curve.

Row | SMILES | activity change, negative = inhibition | Potency
1 | CC(C)(C)OC(=O)C[C@@H]1C/C=C\C[C@@H](CC(=O)N(CCO)Cc2ccccc2)C(=O)N2CCC[C@H]2COC1=O | inactive: -2.26% | –
2 | CN(CC(=O)Nc1cccc(F)c1)CC(=O)Nc1cccc(S(=O)(=O)N2CCCCCC2)c1 | – | inconclusive [inhibitor, single point]
3 | CCOC(=O)N1CCN(S(=O)(=O)c2ccc(OC)c(Cl)c2Cl)CC1 | – | inconclusive [inhibitor, single point]
4 | COCCN(C(C)=O)c1nnc(-c2ccccn2)s1 | inactive: 22.5% | –
5 | COC(=O)C1(C)NC(c2ccc(Cl)cc2)C2C(=O)N(c3ccccc3)C(=O)C21 (stereo not given) | inactive: 2.79% | –
6 | CCCC(=O)Nc1ccc(C(=O)Nc2nc(CC(=O)OCC)cs2)cc1 | – | inconclusive [inhibitor, single point]
7 | CC1(C(=O)N/N=C/c2ccc([N+](=O)[O-])o2)CC1(Br)Br (stereo not given) | – | inconclusive [inhibitor, single point]
8 | Cc1nn(Cc2ccc(F)cc2)c2sc(C(=O)Nc3ccc(N4CCOCC4)cc3N3CCOCC3)cc12 | – | inconclusive [inhibitor, full curve]
9 | COCCN(C(=O)Nc1ccccc1OC)c1nc2ccccc2s1 | – | inconclusive [inhibitor, single point]
10 | O=C(CCCOc1ccc(Cl)cc1Cl)NCc1ccccn1 | – | inconclusive [inhibitor, single point]
11 | CSCCNC(=O)c1ccc2nc(C3CCCCC3)oc2c1 | inactive: 17.5% | –
12 | Nc1nc(-c2ccc(S(=O)(=O)N3CCCCC3)cc2)cs1 | – | inconclusive [inhibitor, single point]
13 | NC(N)=NC(N)=NCCc1ccccc1 | – | active: 3.16 µM
14 | N#Cc1c(NC(NC(=O)c2ccco2)C(=O)c2ccccc2)sc2c1CCCC2 (stereo not given) | – | inconclusive [inhibitor, single point]
15 | CCCCOc1ccc(NC2=NC3(CCCC3)N=C(N)N2)cc1 | – | inconclusive [inhibitor, single point]
16 | COC(=O)c1cc(=O)n(Cc2cccs2)c(=Nc2ccccc2)s1 | – | inconclusive [inhibitor, single point]
17 | COc1ccccc1Cc1nc(-c2ccncc2)no1 | – | inconclusive [inhibitor, single point]
18 | N#Cc1c(N2CCCCC2)nc(N)c2c(N)nc3c(c12)CC(c1ccccc1)O3 (stereo not given) | inactive: -18% | –
19 | CC(C)OCCCNc1nc(Cl)nc2c1cnn2C | inactive: -18.9% | –
20 | CC1CCN(S(=O)(=O)c2ccc(NC(=O)CN3CCCC3)cc2)CC1 | – | inconclusive [inhibitor, single point]
21 | COc1cc(NC(=O)c2cc(-c3cccs3)on2)cc(OC)c1OC | – | inconclusive [inhibitor, partial curve]
22 | CCOC(=O)Cn1c(=N)n(CCOc2ccc3ccccc3c2)c2ccccc21 | – | inconclusive [inhibitor, single point]
23 | COc1cc(NC(=O)CN(C)S(=O)(=O)c2ccc(C)cc2)cc(OC)c1 | – | inconclusive [inhibitor, single point]
24 | COc1cccc(CNC(=O)C23CN(Cc4ccccc4)CC2C(c2ccc([N+](=O)[O-])cc2)=NO3)c1 (stereo not given) | – | inconclusive [inhibitor, partial curve]

Row | SMILES | activity change, negative = inhibition | Potency
25 | COc1ccc(NC(=O)Nc2ccc(F)c(F)c2)c(OC)c1 | – | inconclusive [inhibitor, partial curve]
26 | CCOC(=O)c1c(C)[nH]c(C(=O)OCC(=O)N(CC(C)C)C2CCS(=O)(=O)C2)c1C (stereo not given) | – | inconclusive [inhibitor, full curve]
27 | C[C@]12CCC3C(CC[C@H]4C[C@@H](O)CC[C@]34C)C1CCC2=O (stereo not given in full) | inactive: 30% | –
28 | CCOc1ccc(NC(=O)C(C)Oc2ccccc2C(=O)Nc2cccc(Cl)c2Cl)cc1 (stereo not given) | inactive: 17.4% | –
29 | CCOC(=O)c1ccc(NC(=O)c2cn(-c3ccccc3)nc2-c2ccncc2)cc1 | – | inconclusive [inhibitor, single point]
30 | COc1ccc(-c2c(C#Cc3ccsc3)c3cc(-c4ccc(OC)c(F)c4)ccc3n2C)cc1 | inactive: -5.35% | –
31 | Cc1cc(C)cc(NC(=O)CN2CCc3ccccc3C2)c1 | – | inconclusive [inhibitor, single point]
32 | O=C1NCCN(Cc2c(F)cccc2Cl)C1CC(=O)N1CCCO1 (stereo not given) | inactive: 1.34% | –
33 | CCc1nn(C(CC)C(=O)NCCc2ccc(OC)cc2OC)c(=O)c2cc3occc3n12 (stereo not given) | – | inconclusive [inhibitor, partial curve]
34 | CCOC(=O)NNC(=O)c1[nH]c2ccc(Br)cc2c1-c1ccccc1 | – | inconclusive [inhibitor, single point]
35 | CC(C)COC(=O)NCCOC(=O)Nc1cccc(Cl)c1 | – | inconclusive [inhibitor, single point]
36 | CC12CC3CC(C)(C1)CC(Nc1nc(N4CCOCC4)nc4ccccc14)(C3)C2 | inactive: 1.02% | –
37 | Cc1ccc(Cn2nnnc2CN2CCC(NC(=O)c3ccccc3F)CC2)cc1 | inactive: 6.03% | –
38 | CN(C)Cc1c(C(=O)Nc2ccccc2)[nH]c2ccccc12 | inactive: -12.6% | –
39 | CN(CC(=O)Nc1cccc(F)c1)C(=O)/C=C/c1cn(Cc2ccccc2)nc1-c1cccnc1 | – | inconclusive [inhibitor, partial curve]
40 | O=C(Cn1ncc2c(=O)oc3ccccc3c21)NC1CC1 | inactive: 15.5% | –
41 | CCn1nc(NC(=O)C(C)C)c2cc3cccc(C)c3nc21 | – | inconclusive [inhibitor, single point]
42 | CCN(CC)c1cc(C)c2cc(NC(=O)c3ccccc3OC)ccc2n1 | – | active: 10 µM
43 | CCSc1nc(-c2ccccc2)c(C#N)c(=O)[nH]1 | inactive: 0.778% | –
44 | COc1ccccc1CCN1C(=S)NC(C)(C)CC1(C)O (stereo not given) | – | inconclusive [inhibitor, single point]
45 | CSc1ccccc1NC(=O)CSc1nnnn1-c1ccccc1SC | – | inconclusive [inhibitor, single point]
46 | O=C(Nc1nc(-c2cccs2)cs1)c1ccc(S(=O)(=O)N2CCCCC2)cc1 | – | active: 11.2 µM and active: 17.8 µM
47 | CCCOc1ccc(C(=O)NC(=S)Nc2nc3ccccc3s2)cc1 | – | inconclusive [inhibitor, partial curve]
48 | Cc1nc2ccccn2c1-c1ccnn1S(=O)(=O)c1ccc(F)cc1 | – | inconclusive [inhibitor, partial curve]

Row | SMILES | activity change, negative = inhibition | Potency
49 | N#Cc1cnc(Sc2ccccc2)nc1 | inactive: 1.79% | –
50 | Cc1cc(OCC(=O)Nc2ccccc2C(N)=O)c2c(C)cc(=O)oc2c1 | – | inconclusive [inhibitor, full curve, poor fit]
51 | CSc1ccccc1NC(=O)c1cc(-c2cccnc2)nc2ccc(Br)cc12 | – | active: 11.2 µM
52 | CN(C)CCCN(Cc1ccccc1)C(=S)Nc1ccc(F)c(Cl)c1 | – | inconclusive [inhibitor, single point]
53 | Cc1cc(C)c(OCCNC(=O)c2ccccc2Sc2ccccc2C#N)c(C)c1 | – | inconclusive [inhibitor, single point]
54 | Cc1ccc(S(=O)(=O)N2CCC(=O)N(C(COCc3ccc(Cl)cc3Cl)Cc3ccccc3)CC2)cc1 (stereo not given) | inactive: 0.216% [at 8.37 µM] | –
55 | O=C(CSc1ccc(-c2ccc(Cl)cc2)nn1)N1CCCc2ccccc21 | – | inconclusive [inhibitor, partial curve]
56 | Nc1ccc(S(=O)(=O)NC2(C(F)(F)F)NC(=O)N(c3ccc(F)cc3)C2=O)cc1 (stereo not given) | – | inconclusive [inhibitor, single point]
57 | CC(=O)OC1CSC2c3ccccc3C(=O)N2Cc2sccc21 (stereo not given) | inactive: 10.5% | –
58 | CS(=O)(=O)c1ccc(C(=O)CN2C(=O)NC3(CCCc4ccccc43)C2=O)cc1 (stereo not given) | inactive: 0.766% | –
59 | CC(C)(C)c1cc(C2=CSC3=NCCN23)cc(C(C)(C)C)c1O | – | active: 5.62 µM
60 | COc1ccccc1C(=O)NCC(=O)NCCC(c1ccccc1)c1ccccc1 | – | inconclusive [inhibitor, partial curve]
61 | CN(Cc1ccccc1)C(=O)c1cccc(NC(=O)Cc2ccc(NC(=O)C3CCN(C(=O)CCc4ccccc4)CC3)cc2)c1 | – | active: 2.24 µM
62 | O=C(CNc1cccc(S(=O)(=O)N2CCCC2)c1)Nc1ccc(C(F)(F)F)cc1 | – | active: 10 µM
63 | O=C(Nc1cccc(Oc2ccc3c(c2)C(=O)NC3=O)c1)c1ccco1 | inactive: 23.9% | –
64 | CCOC(=O)c1ccccc1OCc1cc(/C=N/n2cncn2)ccc1OC | – | inconclusive [inhibitor, partial curve, poor fit]
65 | CC(C)(C)c1ccc(OCC(O)CN(CCO)CC(O)Cn2ccc3ccccc32)cc1 (stereo not given) | – | inconclusive [inhibitor, partial curve]
66 | COc1ccc(OC)c2c(C)cc(NCCN3CCOCC3)nc12 | – | inconclusive [inhibitor, full curve]
67 | CCCOc1ccc(Cn2c(=O)oc3ccc(C)cc32)cc1OC | – | inconclusive [inhibitor, partial curve]
68 | Cc1ccc(NC(=Nc2ccc(Br)cc2)N2CCOCC2)cc1C | – | inconclusive [inhibitor, single point]
69 | COc1ccc(CC(=O)Nc2ccc(S(=O)(=O)NC(C)C)cc2)cc1 | – | inconclusive [inhibitor, single point]
70 | CC(C)(C)NC(=S)N1CCC(C(=O)c2ccc(Cl)cc2)CC1 | – | inconclusive [inhibitor, partial curve]
